Over roughly 81,000 sequences, “one-hybrid fitness for binding NBS DNA” has its median near -0.1; the highest 2% begin near 0.36. The list shows a part of the results.
B1: Caulobacter ParB omega fusion; a variant is named by its letters at X, in order, B8GW30 (parent)
chain: MESVVVGEPGMSEGRRGLGRGLSALLGEVDAAPAQAPGEQLGGSREAPIEILQRNPDQPRRTFREEDLEDLSNSIREKGVLQPILVRPSPDTAGEYQIVAGERAWRAAQRAGLKTVPIMVRELDDLAVLEIGIIENVQRADLNVLEEALSYKVLMEKFERTQENIAQTIGKSXSHVANXMRLLXLPDEVQSYLVSGELTAXHARAIAAAADPVALAKQIIEGGLSVRETEALARKAPNLSAGKSKGGRPPRVKDTDTQALESDLSSVLGLDVSIDHRGSTGTLTITYATLEQLDDLCNRLTRGI

Variants of: B1
Experiment: one-hybrid fitness for binding NBS DNA (the Noc-binding site; scaled: cognate 1, non-cognate 0); higher = stronger binding
Details: with NBS DNA site
Method in brief: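 On M9-minus-histidine containing 0.1 mM IPTG and 5 mM 3-AT, E. coli USO cells with a HIS3 reporter, site 19 bp from the promoter, grew 48 hours at 37°C to select Caulobacter ParB libraries randomised at four specificity codons. Plasmids from before and after were Illumina-sequenced, with three replicate libraries pooled and variants under 10 reads left out. Fitness is the log change in variant-to-wild-type read ratio, rescaled against cognate and non-cognate.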

| Variant | one-hybrid fitness for binding NBS DNA |
| --- | --- |
| CVEG | ≤ 0.2 |
| QVFW | ≤ 0.2 |
| EASM | ≤ 0.2 |
| NNSR | ≤ 0.2 |
| CSVR | ≤ 0.2 |
| HVFF | ≤ 0.2 |
| KRHI | ≤ 0.2 |
| LTDF | ≤ 0.2 |
| INHN | ≤ 0.2 |
| RCMW | ≤ 0.2 |
| LADS | ≤ 0.2 |
| RWWG | ≤ 0.2 |
| VGHM | ≤ 0.2 |
| LMKA | ≤ 0.2 |
| RHTM | ≤ 0.2 |
| GEDS | ≤ 0.2 |
| PCQC | ≤ 0.2 |
| RQQA | ≤ 0.2 |
| VLSD | ≤ 0.2 |
| GTWC | ≤ 0.2 |
| QWIT | ≤ 0.2 |
| FTHS | ≤ 0.2 |
| GPRK | ≤ 0.2 |
| KGRV | ≤ 0.2 |

| Variant | one-hybrid fitness for binding NBS DNA |
| --- | --- |
| ADNE | ≤ 0.2 |
| GSLC | ≤ 0.2 |
| WYTT | ≤ 0.2 |
| SMES | ≤ 0.2 |
| TMED | ≤ 0.2 |
| PPHR | ≤ 0.2 |
| AHPM | ≤ 0.2 |
| QEKR | 0.285 |
| LSFG | ≤ 0.2 |
| ADTE | ≤ 0.2 |
| RFFT | ≤ 0.2 |
| LPSG | ≤ 0.2 |
| LSQL | ≤ 0.2 |
| SGQA | ≤ 0.2 |
| SPFC | ≤ 0.2 |
| HMSC | ≤ 0.2 |
| RDHC | ≤ 0.2 |
| SCVR | ≤ 0.2 |
| VIGT | ≤ 0.2 |
| VKFT | ≤ 0.2 |
| RLQS | 0.382 |
| HVHI | ≤ 0.2 |
| TYKQ | ≤ 0.2 |
| WRKN | ≤ 0.2 |

| Variant | one-hybrid fitness for binding NBS DNA |
| --- | --- |
| VSTV | ≤ 0.2 |
| VNKK | ≤ 0.2 |
| VQTG | ≤ 0.2 |
| YNNR | ≤ 0.2 |
| FHCC | ≤ 0.2 |
| SNDS | ≤ 0.2 |
| DMIY | ≤ 0.2 |
| NLTF | ≤ 0.2 |
| NIRL | ≤ 0.2 |
| CRMY | ≤ 0.2 |
| NQPC | ≤ 0.2 |
| RYQY | ≤ 0.2 |
| RFEI | ≤ 0.2 |
| HDMT | ≤ 0.2 |
| SWGT | ≤ 0.2 |
| EVDK | ≤ 0.2 |
| TLRQ | ≤ 0.2 |
| HQDA | ≤ 0.2 |
| QNEI | ≤ 0.2 |
| RMAT | 0.426 |
| TDTG | ≤ 0.2 |
| EMSP | ≤ 0.2 |
| KNKR | ≤ 0.2 |
| PSQW | ≤ 0.2 |

| Variant | one-hybrid fitness for binding NBS DNA |
| --- | --- |
| KHYS | ≤ 0.2 |
| QNIT | ≤ 0.2 |
| SSVC | ≤ 0.2 |
| QMAR | 0.602 |
| YYEK | ≤ 0.2 |
| NGKY | ≤ 0.2 |
| LNFP | ≤ 0.2 |
| QQSP | ≤ 0.2 |
| VPCS | ≤ 0.2 |
| ACGR | ≤ 0.2 |
| KTPQ | ≤ 0.2 |
| AALE | ≤ 0.2 |
| VRPG | ≤ 0.2 |
| QNKE | ≤ 0.2 |
| QAFD | ≤ 0.2 |
| TGAA | ≤ 0.2 |
| SYDD | ≤ 0.2 |
| QMPK | ≤ 0.2 |
| PYYT | ≤ 0.2 |
| TLAV | ≤ 0.2 |
| DWYT | ≤ 0.2 |
| RKFY | ≤ 0.2 |
| THCL | ≤ 0.2 |
| LFYC | ≤ 0.2 |

| Variant | one-hybrid fitness for binding NBS DNA |
| --- | --- |
| RTIM | ≤ 0.2 |
| RRFQ | 0.267 |
| HVDN | ≤ 0.2 |
| GDTM | ≤ 0.2 |
| HDGG | ≤ 0.2 |
| VITF | ≤ 0.2 |
| GQAS | ≤ 0.2 |
| PDRG | ≤ 0.2 |
| RRIE | ≤ 0.2 |
| EPTH | ≤ 0.2 |
| VLVC | ≤ 0.2 |
| WAIG | ≤ 0.2 |
| WPEL | ≤ 0.2 |
| YPLV | ≤ 0.2 |
| MQFR | ≤ 0.2 |
| GVMD | ≤ 0.2 |
| MVFN | ≤ 0.2 |
| HRMV | ≤ 0.2 |
| QCCK | ≤ 0.2 |
| PHPN | ≤ 0.2 |
| DGIL | ≤ 0.2 |
| GFTR | ≤ 0.2 |
| TYHQ | ≤ 0.2 |
| LEYG | ≤ 0.2 |

| Variant | one-hybrid fitness for binding NBS DNA |
| --- | --- |
| AIQR | ≤ 0.2 |
| RPEN | ≤ 0.2 |
| DKRV | ≤ 0.2 |
| NHQC | ≤ 0.2 |
| QRAR | 1.01 |
| IQIS | ≤ 0.2 |
| AHSS | ≤ 0.2 |
| YFHT | ≤ 0.2 |
| RGLL | ≤ 0.2 |
| KTFG | ≤ 0.2 |
| GYPL | ≤ 0.2 |
| TVDA | ≤ 0.2 |
| TFHM | ≤ 0.2 |
| ESFG | ≤ 0.2 |
| CAPN | ≤ 0.2 |
| ANQD | ≤ 0.2 |
| GQIV | ≤ 0.2 |
| NIWW | ≤ 0.2 |
| WASN | ≤ 0.2 |
| GNPF | ≤ 0.2 |
| AKLL | ≤ 0.2 |
| RMTH | ≤ 0.2 |
| CIMY | ≤ 0.2 |
| ANKY | ≤ 0.2 |

| Variant | one-hybrid fitness for binding NBS DNA |
| --- | --- |
| CAAL | ≤ 0.2 |
| PLEV | ≤ 0.2 |
| RGAD | ≤ 0.2 |
| AEYS | ≤ 0.2 |
| CKTK | ≤ 0.2 |
| TLHY | ≤ 0.2 |
| IRPS | ≤ 0.2 |
| LASI | ≤ 0.2 |
| GDSG | ≤ 0.2 |
| ASWC | ≤ 0.2 |
| FTVV | ≤ 0.2 |
| RNNQ | ≤ 0.2 |
| QPRN | ≤ 0.2 |
| AGTV | ≤ 0.2 |
| RHTF | ≤ 0.2 |
| QEYG | ≤ 0.2 |
| TMDR | ≤ 0.2 |
| MICS | ≤ 0.2 |
| RCNI | ≤ 0.2 |
| GEYF | ≤ 0.2 |
| LDWC | ≤ 0.2 |
| QMPN | ≤ 0.2 |
| LPWR | ≤ 0.2 |
| RCLE | ≤ 0.2 |

| Variant | one-hybrid fitness for binding NBS DNA |
| --- | --- |
| LMHM | ≤ 0.2 |
| RTFG | ≤ 0.2 |
| KVHS | ≤ 0.2 |
| FSRS | ≤ 0.2 |
| QIMW | ≤ 0.2 |
| HSGC | ≤ 0.2 |
| HKYK | ≤ 0.2 |
| HEHL | ≤ 0.2 |
| SMEC | ≤ 0.2 |
| HVFS | ≤ 0.2 |
| QTTF | ≤ 0.2 |
| DTQC | ≤ 0.2 |
| RNEP | ≤ 0.2 |
| AKEI | ≤ 0.2 |
| SVVL | ≤ 0.2 |
| GNCM | ≤ 0.2 |
| WPNN | ≤ 0.2 |
| TYVM | ≤ 0.2 |
| PNYH | ≤ 0.2 |
| QTRW | 0.417 |
| PNLF | ≤ 0.2 |
| AQKN | ≤ 0.2 |
| KWLM | ≤ 0.2 |
| EGSS | ≤ 0.2 |

| Variant | one-hybrid fitness for binding NBS DNA |
| --- | --- |
| LYQG | ≤ 0.2 |
| QSFK | ≤ 0.2 |
| KKAG | ≤ 0.2 |
| PMFG | ≤ 0.2 |
| WRYY | ≤ 0.2 |
| VTSY | ≤ 0.2 |
| SYYK | ≤ 0.2 |
| FCMR | ≤ 0.2 |
| HVGV | ≤ 0.2 |
| AFST | ≤ 0.2 |
| VLRA | ≤ 0.2 |
| MNCR | ≤ 0.2 |
| ATLA | ≤ 0.2 |
| YSMS | ≤ 0.2 |
| RART | 0.621 |
| QMWI | ≤ 0.2 |
| HNLV | ≤ 0.2 |
| DEHC | ≤ 0.2 |
| MTSE | ≤ 0.2 |
| LLGH | ≤ 0.2 |
| ADKL | ≤ 0.2 |
| QNAF | ≤ 0.2 |
| QEQT | ≤ 0.2 |
| SRHE | ≤ 0.2 |

| Variant | one-hybrid fitness for binding NBS DNA |
| --- | --- |
| PFYT | ≤ 0.2 |
| KPVK | ≤ 0.2 |
| RPLR | ≤ 0.2 |
| AMFG | ≤ 0.2 |
| RACK | ≤ 0.2 |
| RFLA | ≤ 0.2 |
| DSKV | ≤ 0.2 |
| QELT | ≤ 0.2 |
| WSTS | ≤ 0.2 |
| LTRH | ≤ 0.2 |
| SAIG | ≤ 0.2 |
| VTWW | ≤ 0.2 |
| ADTW | ≤ 0.2 |
| YVIV | ≤ 0.2 |
| AQGG | ≤ 0.2 |
| LDNV | ≤ 0.2 |
| TERC | ≤ 0.2 |
| ERNG | ≤ 0.2 |
| PRPD | ≤ 0.2 |
| YPCT | ≤ 0.2 |
| SHRC | ≤ 0.2 |
| QRNN | 0.459 |
| HKQG | ≤ 0.2 |
| AHTV | ≤ 0.2 |

| Variant | one-hybrid fitness for binding NBS DNA |
| --- | --- |
| KPSK | ≤ 0.2 |
| RWDS | ≤ 0.2 |
| RYGA | ≤ 0.2 |
| TRWW | ≤ 0.2 |
| QLEP | ≤ 0.2 |
| APWM | ≤ 0.2 |
| QKWW | ≤ 0.2 |
| KTIR | ≤ 0.2 |
| RMME | ≤ 0.2 |
| YLIT | ≤ 0.2 |
| ARHR | ≤ 0.2 |
| HAFT | ≤ 0.2 |
| WIVR | ≤ 0.2 |
| MSTN | ≤ 0.2 |
| QSHY | 0.201 |
| RVQC | ≤ 0.2 |
| CVST | ≤ 0.2 |
| SLSA | ≤ 0.2 |
| LQLV | ≤ 0.2 |
| QDQD | ≤ 0.2 |
| GGSC | ≤ 0.2 |
| QGCV | ≤ 0.2 |
| GCRS | ≤ 0.2 |
| DARL | ≤ 0.2 |

| Variant | one-hybrid fitness for binding NBS DNA |
| --- | --- |
| WYCF | ≤ 0.2 |
| HQRE | ≤ 0.2 |
| WILQ | ≤ 0.2 |
| AIWR | ≤ 0.2 |
| QKMM | ≤ 0.2 |
| HAHI | ≤ 0.2 |
| CCMS | ≤ 0.2 |
| ESHT | ≤ 0.2 |
| PQSM | ≤ 0.2 |
| DDCW | ≤ 0.2 |
| GHAN | ≤ 0.2 |
| APKL | ≤ 0.2 |
| TYKY | ≤ 0.2 |
| HMIG | ≤ 0.2 |
| QIVF | ≤ 0.2 |
| SMCV | ≤ 0.2 |
| IPGQ | ≤ 0.2 |
| TLYA | ≤ 0.2 |
| ATQY | ≤ 0.2 |
| AKPC | ≤ 0.2 |
| ATAM | ≤ 0.2 |
| PCRQ | ≤ 0.2 |
| NRRM | ≤ 0.2 |
| QQNS | 0.515 |

| Variant | one-hybrid fitness for binding NBS DNA |
| --- | --- |
| LRVK | ≤ 0.2 |
| CSHD | ≤ 0.2 |
| CSCN | ≤ 0.2 |
| NWGR | ≤ 0.2 |
| DHWG | ≤ 0.2 |
| DWQS | ≤ 0.2 |
| EFRT | ≤ 0.2 |
| HGAV | ≤ 0.2 |
| PMIS | ≤ 0.2 |
| HVQW | ≤ 0.2 |
| SFQC | ≤ 0.2 |
| AVGY | ≤ 0.2 |
| RRIM | ≤ 0.2 |
| TSMG | ≤ 0.2 |
| IGYS | ≤ 0.2 |
| HSMD | ≤ 0.2 |
| QPMI | ≤ 0.2 |
| QWST | ≤ 0.2 |

Source: a collection of fitness landscapes (doi:10.1016/j.celrep.2020.107928)
